# Experimental data taken from a collection of fitness landscapes (doi:10.1016/j.celrep.2020.107928).
# In all, about 81,000 sequences were measured (“one-hybrid fitness for binding parS DNA”: median about -0.17, highest 2% from about 0.51 on). Some of the results follow.
# B1: Caulobacter ParB omega fusion; a variant is named by its letters at X, in order, B8GW30 (parent)
# chain: MESVVVGEPGMSEGRRGLGRGLSALLGEVDAAPAQAPGEQLGGSREAPIEILQRNPDQPRRTFREEDLEDLSNSIREKGVLQPILVRPSPDTAGEYQIVAGERAWRAAQRAGLKTVPIMVRELDDLAVLEIGIIENVQRADLNVLEEALSYKVLMEKFERTQENIAQTIGKSXSHVANXMRLLXLPDEVQSYLVSGELTAXHARAIAAAADPVALAKQIIEGGLSVRETEALARKAPNLSAGKSKGGRPPRVKDTDTQALESDLSSVLGLDVSIDHRGSTGTLTITYATLEQLDDLCNRLTRGI
# Variants of: B1
# Experiment: one-hybrid fitness for binding parS DNA (scaled: cognate 1, non-cognate 0); higher = stronger binding
# Details: with parS DNA site
# Outline: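 Pre- and post-selection plasmids were Illumina-sequenced, three replicate libraries were pooled, and any variant with under 10 reads was removed. The libraries were Caulobacter ParB with four specificity codons randomised, selected in E. coli USO through a HIS3 reporter whose site is 19 bp from the promoter. Cells grew 48 hours at 37°C on M9 without histidine, with 0.1 mM IPTG and 5 mM 3-AT. Fitness is the log change in variant-to-wild-type read ratio, rescaled against cognate and non-cognate.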
row,Variant,one-hybrid fitness for binding parS DNA
1,PPNC,≤ 0.2
2,SCPN,≤ 0.2
3,IETY,≤ 0.2
4,DVLC,≤ 0.2
5,MNVG,≤ 0.2
6,ASYT,≤ 0.2
7,QFTN,≤ 0.2
8,GWSG,≤ 0.2
9,YKHT,≤ 0.2
10,KRSC,≤ 0.2
11,HGST,≤ 0.2
12,NMSR,≤ 0.2
13,RIYY,0.475
14,MTAN,≤ 0.2
15,QQQG,≤ 0.2
16,MPKY,≤ 0.2
17,PNLY,≤ 0.2
18,ANVT,≤ 0.2
19,NKIC,≤ 0.2
20,RGRF,≤ 0.2
21,QWTI,≤ 0.2
22,PEYI,≤ 0.2
23,MLLV,≤ 0.2
24,EQSN,≤ 0.2

row,Variant,one-hybrid fitness for binding parS DNA
1,QPSW,≤ 0.2
2,HEES,≤ 0.2
3,DKAK,≤ 0.2
4,MEVR,≤ 0.2
5,QMCM,≤ 0.2
6,PERC,≤ 0.2
7,CAHN,≤ 0.2
8,ELSG,≤ 0.2
9,KNNM,≤ 0.2
10,HSHA,≤ 0.2
11,PDML,≤ 0.2
12,CYIS,≤ 0.2
13,CSAK,≤ 0.2
14,MIRK,≤ 0.2
15,HYTE,≤ 0.2
16,QAPK,≤ 0.2
17,QNAD,≤ 0.2
18,DDHV,≤ 0.2
19,KLKR,≤ 0.2
20,KYQG,≤ 0.2
21,STLT,≤ 0.2
22,TTIK,≤ 0.2
23,SQQG,≤ 0.2
24,SFSA,≤ 0.2

row,Variant,one-hybrid fitness for binding parS DNA
1,LTGD,≤ 0.2
2,MPMG,≤ 0.2
3,EFDM,≤ 0.2
4,TIHT,≤ 0.2
5,MNTT,≤ 0.2
6,RMCW,0.211
7,QLLP,≤ 0.2
8,QAMY,≤ 0.2
9,TAKC,≤ 0.2
10,RRCP,≤ 0.2
11,NVFG,≤ 0.2
12,TLWV,≤ 0.2
13,ERGT,≤ 0.2
14,HWRH,≤ 0.2
15,YDWR,≤ 0.2
16,NSHN,≤ 0.2
17,QMHQ,≤ 0.2
18,LLFR,≤ 0.2
19,KETS,≤ 0.2
20,SSFH,≤ 0.2
21,EQHG,≤ 0.2
22,IRAS,≤ 0.2
23,QIYD,≤ 0.2
24,GDVR,≤ 0.2

row,Variant,one-hybrid fitness for binding parS DNA
1,IEPW,≤ 0.2
2,QRAY,≤ 0.2
3,ELSC,≤ 0.2
4,NKYN,≤ 0.2
5,RFQK,≤ 0.2
6,SVRK,≤ 0.2
7,QKTC,≤ 0.2
8,CCYF,0.264
9,QSPL,≤ 0.2
10,HTSR,≤ 0.2
11,LILN,≤ 0.2
12,QSNC,≤ 0.2
13,PGIM,≤ 0.2
14,SPSY,≤ 0.2
15,RCLS,1.04
16,KRGP,≤ 0.2
17,GIDS,≤ 0.2
18,TRYY,≤ 0.2
19,NIEG,≤ 0.2
20,KKDT,≤ 0.2
21,SIYP,≤ 0.2
22,NRIF,≤ 0.2
23,MRDS,≤ 0.2
24,RQDS,0.977

row,Variant,one-hybrid fitness for binding parS DNA
1,TDSA,≤ 0.2
2,QDDV,≤ 0.2
3,LTNL,≤ 0.2
4,RNII,≤ 0.2
5,RYSS,0.911
6,RKKI,≤ 0.2
7,PTNF,≤ 0.2
8,PYMV,≤ 0.2
9,SSNM,≤ 0.2
10,KPNC,≤ 0.2
11,ELPR,≤ 0.2
12,YERN,≤ 0.2
13,FTPQ,0.304
14,LCGC,≤ 0.2
15,QSSG,≤ 0.2
16,QTFC,≤ 0.2
17,CGMV,≤ 0.2
18,SVNE,≤ 0.2
19,RELK,≤ 0.2
20,PKEQ,≤ 0.2
21,LPFC,≤ 0.2
22,PFRD,≤ 0.2
23,GGPG,≤ 0.2
24,QVPG,≤ 0.2

row,Variant,one-hybrid fitness for binding parS DNA
1,ACTG,≤ 0.2
2,PQKS,≤ 0.2
3,DQGL,≤ 0.2
4,TRVC,≤ 0.2
5,PSDV,≤ 0.2
6,LKRA,≤ 0.2
7,DVWA,≤ 0.2
8,YGVV,≤ 0.2
9,QCYS,≤ 0.2
10,RFHE,≤ 0.2
11,LQIP,≤ 0.2
12,GTKH,≤ 0.2
13,PMGT,≤ 0.2
14,LKPK,≤ 0.2
15,TYMS,≤ 0.2
16,TGGG,≤ 0.2
17,PVNW,≤ 0.2
18,TGRR,≤ 0.2
19,HSMA,≤ 0.2
20,MLSA,≤ 0.2
21,FRHP,≤ 0.2
22,MDLG,≤ 0.2
23,IHLT,≤ 0.2
24,ADWE,≤ 0.2

row,Variant,one-hybrid fitness for binding parS DNA
1,WTAD,≤ 0.2
2,RAYF,0.264
3,QRFF,≤ 0.2
4,FPGM,≤ 0.2
5,PNHD,≤ 0.2
6,KHPY,≤ 0.2
7,GTIK,≤ 0.2
8,PRID,≤ 0.2
9,QNAK,≤ 0.2
10,THSK,≤ 0.2
11,HIYG,≤ 0.2
12,SVCG,≤ 0.2
13,EIGS,≤ 0.2
14,PQWY,≤ 0.2
15,WRLT,≤ 0.2
16,DYPC,≤ 0.2
17,NNNT,≤ 0.2
18,SMDC,≤ 0.2
19,SRCW,≤ 0.2
20,CAPD,≤ 0.2
21,RCKA,0.844
22,FYKR,≤ 0.2
23,PGMG,≤ 0.2
24,ANMD,≤ 0.2

row,Variant,one-hybrid fitness for binding parS DNA
1,CFPS,≤ 0.2
2,GSNA,≤ 0.2
3,ETLS,≤ 0.2
4,GSSR,≤ 0.2
5,KDLG,≤ 0.2
6,PGCY,≤ 0.2
7,PADD,≤ 0.2
8,ADHR,≤ 0.2
9,GTSE,≤ 0.2
10,GTSG,≤ 0.2
11,DKYW,≤ 0.2
12,QPFN,≤ 0.2
13,RCQR,≤ 0.2
14,MAVG,≤ 0.2
15,KWLR,≤ 0.2
16,CGGW,≤ 0.2
17,YLEP,≤ 0.2
18,TFTY,≤ 0.2
19,LTRP,≤ 0.2
20,RAEQ,0.234
21,MTLT,≤ 0.2
22,TMET,≤ 0.2
23,TSLL,≤ 0.2
24,VTPK,≤ 0.2

row,Variant,one-hybrid fitness for binding parS DNA
1,RHTN,0.384
2,KFPS,≤ 0.2
3,LNFF,≤ 0.2
4,YVWT,≤ 0.2
5,LTHP,≤ 0.2
6,QRIR,≤ 0.2
7,MCNA,≤ 0.2
8,IPTH,≤ 0.2
9,TLPW,≤ 0.2
10,DTME,≤ 0.2
11,YPYR,≤ 0.2
12,TYFS,≤ 0.2
13,RRFH,≤ 0.2
14,MLES,≤ 0.2
15,CTAG,≤ 0.2
16,DHMS,≤ 0.2
17,YPVP,≤ 0.2
18,VTLQ,≤ 0.2
19,QLVL,≤ 0.2
20,SSVT,≤ 0.2
21,NMES,≤ 0.2
22,YSLG,≤ 0.2
23,AMCA,≤ 0.2
24,PMSC,≤ 0.2

row,Variant,one-hybrid fitness for binding parS DNA
1,FNQT,≤ 0.2
2,WTHG,≤ 0.2
3,PITR,≤ 0.2
4,KPSN,≤ 0.2
5,TSGC,≤ 0.2
6,LKAI,≤ 0.2
7,IDNT,≤ 0.2
8,LKPN,≤ 0.2
9,PPVY,≤ 0.2
10,MYTW,≤ 0.2
11,GMAR,≤ 0.2
12,QQDI,≤ 0.2
13,SQSD,≤ 0.2
14,QFRC,≤ 0.2
15,DQLG,≤ 0.2
16,GSSL,≤ 0.2
17,CPVW,≤ 0.2
18,NAQW,≤ 0.2
19,GVPA,≤ 0.2
20,WVAN,≤ 0.2
21,PKIG,≤ 0.2
22,PSPD,≤ 0.2
23,NCGT,≤ 0.2
24,CGAM,≤ 0.2

row,Variant,one-hybrid fitness for binding parS DNA
1,RVEN,0.294
2,YCPG,≤ 0.2
3,CKRG,≤ 0.2
4,RLIS,1
5,LRKQ,≤ 0.2
6,MHMC,≤ 0.2
7,YIQS,≤ 0.2
8,LYRN,≤ 0.2
9,YSQA,≤ 0.2
10,DGRN,≤ 0.2
11,RSGH,0.208
12,PTAV,≤ 0.2
13,YSSW,≤ 0.2
14,IKSC,≤ 0.2
15,VRVQ,≤ 0.2
16,EPFM,≤ 0.2
17,YPVY,≤ 0.2
18,YCDA,≤ 0.2
19,GLND,≤ 0.2
20,GHQS,≤ 0.2
21,HKNC,≤ 0.2
22,KYME,≤ 0.2
23,KAGE,≤ 0.2
24,HKRC,≤ 0.2

row,Variant,one-hybrid fitness for binding parS DNA
1,QHKH,≤ 0.2
2,MDYS,≤ 0.2
3,LLGL,≤ 0.2
4,SDVS,≤ 0.2
5,APWL,≤ 0.2
6,GSFT,≤ 0.2
7,PGQC,≤ 0.2
8,INCR,≤ 0.2
9,VAML,≤ 0.2
10,ISMT,≤ 0.2
11,RCHY,0.46
12,MPVT,≤ 0.2
13,HVIK,≤ 0.2
14,PMYC,≤ 0.2
15,KWPC,≤ 0.2
16,MGSM,≤ 0.2
17,LHLE,≤ 0.2
18,CAES,≤ 0.2
19,YSPF,≤ 0.2
20,GHSV,≤ 0.2
21,PGKA,≤ 0.2
22,IMHV,≤ 0.2
23,VHLI,≤ 0.2
24,RTCA,0.572

row,Variant,one-hybrid fitness for binding parS DNA
1,PGST,≤ 0.2
2,HWHE,≤ 0.2
3,GKTC,≤ 0.2
4,RSGL,≤ 0.2
5,QRYY,≤ 0.2
6,PNVA,≤ 0.2
7,LKQL,≤ 0.2
8,NISV,≤ 0.2
9,SQNS,≤ 0.2
10,YIHA,≤ 0.2
11,YKAL,≤ 0.2
12,GPRG,≤ 0.2
13,KFTC,≤ 0.2
14,RGGF,≤ 0.2
15,QKWG,≤ 0.2
16,RVTV,≤ 0.2
17,CHCC,≤ 0.2
18,FRFV,≤ 0.2
